This is one part of the list.

This assay relates to PfAP2-HC AP2 domain (GST-tagged). Briefly: gcPBM binding intensity (ln(normalized median fluorescence intensity)); higher = stronger DNA binding. The method in brief: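 Binding intensity is defined as the maximum Masliner-normalised natural-log median intensity across replicate spots for either probe orientation. It was measured on an Agilent 4 × 180k array of primer-extended double-stranded 36-bp intergenic genomic probes and negative controls, to which GST-tagged P. falciparum DNA-binding domains made in E. coli were applied for 1 h in 1× PBS with 1% milk, 0.2 mg/ml BSA, 0.5% salmon testes DNA and 0.03% Triton X-100. Detection was by Alexa488 anti-GST antibody and scanning at 488 nm.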
In the case of “ACTATAAATATATAAATATATATATATATATATATA [GTGCAC_negctrl_site65]”, the “gcPBM binding intensity (ln)” value came out at 9.4.
With “TTTCCATTATGATATAGTACATAAATATATGTAATA [XGTACX_site6992]”, the “gcPBM binding intensity (ln)” value was found to be 9.33.
As for “TTGTGTGTATGTATACATATATATATTGAGACGAAT [TGCATGCA_negctrl_site382]”, the figure is 10.
As for “TATGTCAATTTTCATACATGCGCATAATCTTTATTT [TGCATGCA_site807]”, the figure is 10; as for “ATAAATAAGATACGTACACACATATACAAAATATAC [CACACA_site3661]”, 9.98.
As for “TAAATACACTGTAGCGCACACGGCCAAAAAAAAAAA [CACACA_site1818]”, the figure is 9.91.
For “TTATTATCCTATATTTCTTTTCCTTCTTCAAAATTA [CACACA_negctrl_site1314]”, the “gcPBM binding intensity (ln)” value was found to be 9.45.
In the case of “TACTATCTATACAATACACACAAAAAAAAAAAAATA [CACACA_site3981]”, the “gcPBM binding intensity (ln)” value turned out to be 10.2.
As for “TAATATCATTTATATTGTACTATAACAAAATCTATA [XGTACX_site7700]”, the figure is 9.59; as for “AATTGTAAATTGGGCACTTATAAAAATGAACAAATA [CACACA_negctrl_site1583]”, 9.71; as for “TCATAAAGAACAAAGTGTACCTATATATTACATACA [XGTACX_site7595]”, 9.59.
As for “TATAAAACCCTACTGTTTCTTCTTTATTGATATATT [TGCATGCA_negctrl_site285]”, the figure is 9.69; as for “AAAGTTTTTATACATACACACCTATAAATTAAGTGC [CACACA_site7198]”, 9.62.
As for “GAAAGAATAAAATAAACATGCAAATAAAACATAAAA [TGCATGCA_site471]”, the figure is 9.82.
As for “TTTTCAATATATAGAGCATGCGCATCCACAAATATG [TGCATGCA_site380]”, the “gcPBM binding intensity (ln)” value amounted to 9.51.
As for “AATGGAAAATTATTAACACACACATATAAATATATA [CACACA_site7899]”, the figure is 10.1; as for “TGCCAATTTTTAAAAACATGCATTATATAGAATAAA [TGCATGCA_site872]”, 9.24; as for “ATTAAAAGGGGGTTTACATGTGTGTGTGTAATATGG [TGCATGCA_negctrl_site293]”, 10.6.
As for “TACAACAATTTTTGCACACACCAAAACATAAAATAA [CACACA_site4964]”, the figure is 9.96; as for “ATATTTCATCTAGCTACACACATATAATAAATTATT [CACACA_site4094]”, 9.92; as for “AATAATCATTTTCATAGTACGTATGATTAGAAAAAA [XGTACX_site2589]”, 9.6.
As for “CAAAATATTTTTATAACACACATATTTATAACGTGC [CACACA_site6659]”, the figure is 9.65.
For the sequence “TTTTGATTGTTATTCGTATATTATTTTATGATTATA [CACACA_negctrl_site1593]”, the “gcPBM binding intensity (ln)” value was determined as 9.69.
As for “TTATACATTTGTAAATAAATAGAACTGTATTTTTTT [TGCATGCA_negctrl_site397]”, the figure is 9.39; as for “TATATACCGATATATACACACAAATACATAAGCTTC [CACACA_site6760]”, 9.82; as for “AATATAAACAGACACACACACATATAGATTTATATT [CACACA_site7382]”, 10.4.
As for “GGATAGATAATAGGGGGTACAAATATACATACATAT [XGTACX_site5089]”, the figure is 9.99.
Take “GAAAATAGAAAAAGCACACATATATTTTGGAATGTA [CACACA_site551]”: the “gcPBM binding intensity (ln)” value is 9.79.
As for “TTTTAATGAAAACACACACACACATATATATATATA [CACACA_site5295]”, the figure is 11.1; as for “CTAAATATATAAAAAAGTACAAAATAAATAATAATT [XGTACX_site2442]”, 9.76; as for “TATATATTATGACCACCACACACCTATACACATAAC [CACACA_site8773]”, 10.7.
As for “TATTTCTGATTATTTTGTACACATTATATATAATGC [XGTACX_site6990]”, the figure is 9.7; as for “TAATAAGTACCTTTTGCATGTGGCACGCTTTTTTTT [TGCATGCA_site573]”, 9.74; as for “TATTATATAACAAAAAGTACTTATAAGAAATATATA [XGTACX_site5467]”, 9.66.
As for “AAATGAATTATATAATATATATAAATAAATAAATAA [CACACA_negctrl_site359]”, the figure is 9.72; as for “AAAAGTATATATTCAGTGCATAGTCTTTAAATATAA [GTGCAC_site9522]”, 9.69.
Turning to “ATAAGCATCTGGATATGTACTTATTCCTTTAAAGAT [XGTACX_site6225]”, the “gcPBM binding intensity (ln)” value came to 9.58.
As for “TATATATAACATTGTACACACAAAGAAATAATATTA [CACACA_site3035]”, the figure is 9.92.
“ATAAAAAAGCAACATCATATGTTTTTATAGAGTATT [CACACA_negctrl_site745]”: the “gcPBM binding intensity (ln)” value amounted to 9.58.
As for “AACAAGTTGCATGGTGCACACATGTATTTATATCTA [CACACA_site5414]”, the figure is 10; as for “TATTAAAAATATTATGTACACACATTTTAGATATTT [CACACA_site8549]”, 9.77.
As for “AAATTAATGAAATATACACACATATATAAATATATA [CACACA_site4378]”, the figure is 9.86; as for “AAATTTTTTAATTTTTCTCATTTAATTTAAAAATTA [GTGCAC_negctrl_site155]”, 9.32; as for AAATTAAAGATAAAAGTGCAAAATTATAAATTTATT, 9.81.

These data come from the supplement of paper PMC11417369.
